# “And” between values parts separate entries of the source, which are not always exact repeats. Identical values can stand only once.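 Each compound was tested at five concentrations against cells in 96-well plates for 48 hours. GI50 = concentration required for 50% inhibition of growth. TGI: concentration producing complete growth inhibition.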
# Tested on: NCI-H322M lung
# Assay: DTP human tumour cell line panel, 48 h
SMILES,TGI,GI50
Cc1c(O)c(=O)ccn1CCO,> 100 µM,–
COC1/C=C/C(C)C(C(C)C(OC)C(C)CCC(=O)C(C)C(C/C=C/N(C)C=O)OC)OC(=O)/C=C/C=C(\C)CC(OC)C(OC)C2=CC(=O)O[C@@H](C(C)C(OC)CC(OC)/C=C/C(C)C(O)C1)[C@H]2O (some centres undefined),0.926 µM,–
COC(=O)c1ccccc1CC(Cc1ccccc1)C(=O)OC (centres undefined),> 100 µM,–
COc1ccc2c(c1)-c1oc3ccccc3c(=O)c1CO2,> 100 µM,–
COc1cc(OC)cc(-c2cncn2-c2ccc(-c3nc4cc(OC)cc(OC)c4s3)cc2)c1,> 100 µM,> 100 µM
COc1cc(C2S/C(=C/c3ccccc3)C(=O)N2c2cccc([N+](=O)[O-])c2)cc(OC)c1OC (centres undefined),> 100 µM,–
O=[N+]([O-])/C=C/c1ccc([N+](=O)[O-])cc1,30.4 µM,14.7 µM
CN(C)CC(NC(NCS)C(=O)NCCNc1ccc(NCCNC(=O)C(NCS)NC(CN(C)C)OCCl)c2c1C(=O)c1c(O)ccc(O)c1C2=O)OCCl (centres undefined),4.37 µM and 1.85 µM,0.0942 µM
CC1(C)N[P+]2(Nc3ccccc3O2)OC1=O (centres undefined),> 100 µM,–
CC(C)(NC1=NCCO1)c1ccccc1,> 100 µM,–
c1cncc(CNc2ncn[nH]2)c1,> 100 µM,–
Cc1cc(C)c2c(N)c3cccc(C)c3nc2n1,11.2 µM,2.39 µM
COc1ccc(-c2ccccc2)cc1-c1c(Nc2cc(Cl)cc(Cl)c2O)c(=O)c1=O,> 50 µM,1.54 µM
COc1ccc(C(=O)CC(c2ccc(OC)c(OC)c2)c2c(O)c3ccccc3oc2=O)cc1OC (centres undefined),> 100 µM,–
Cc1ccc(F)cc1NC(=O)c1cc(Cl)ccc1Nc1ccccc1,> 100 µM,> 100 µM
CC1CC2(CCC1OCc1ccccc1)OCCO2 (centres undefined),> 100 µM,–
Cc1ccc(Oc2nc3ccccc3cc2-c2nnc(Cn3c(COc4ccccc4)nc4ccccc43)o2)cc1,34.4 µM,14.9 µM
CC(=O)O[C@H]1CC[C@@]2(C)C(=CC[C@@H]3C2CC[C@]2(C)Nc4[nH]ncc4CC32)C1 (some centres undefined),> 100 µM,–
CC(=N\N=C\c1ccccn1)/C(C)=N/N=C(C)/C(C)=N/N=C(C)/C(C)=N/N=C/c1ccccn1,> 100 µM,–
Cc1cc2c(cc1Br)C1(C)CCC(C)C1(C)O2 (centres undefined),> 100 µM,–
COc1ccc(/C=C\c2cc(OC)c(OC)c(OC)c2)cc1OCC(=O)Nc1nc2ccc(OC(F)(F)F)cc2s1,> 100 µM,> 100 µM
COc1ccc(C2=CN3CCC[C@H]3C=C2c2cc(O)c(OC)c(OC)c2)cc1OC,0.039 µM and 0.0113 µM,–
COc1ccc2c(c1)CC[C@@H]1[C@@H]2CC[C@]2(C)C(=O)/C(=C/c3cc(OC)c(OC)c(OC)c3)C[C@@H]12,96 µM,–

SMILES,TGI,GI50
CN(C)S(=O)(=O)c1ccc(Nc2ccc(O)c3c2C(=O)c2c([N+](=O)[O-])ccc(O)c2C3=O)cc1,> 100 µM,–
COc1ccc(-c2nc3sc4c(c3c(=O)[nH]2)CCCC4)c2ccccc12,> 100 µM,0.646 µM and 2.43 µM
O=C(Nc1cccc(-n2ccc3c(NC(=O)c4ccccc4)nccc32)c1)c1cc(N2CCOCC2)cc(C(F)(F)F)c1,> 100 µM,1.09 µM
COC(=O)n1c(CBr)c(Br)c2ccccc21,> 100 µM,–
O=C(C#Cc1cn(C2CC(O)C(CO)O2)c(=O)[nH]c1=O)c1ccccc1 (centres undefined),> 100 µM,–
N/C(=N\c1nc2ccccc2s1)NC(=O)Nc1cccc2ccccc12,> 100 µM,0.637 µM
CNCCOC(=O)/C=C1/CCC2C(C(O)CC3C(C)(C(=O)OC)CCCC23C)C1C (centres undefined),0.0686 µM,0.0245 µM
CO/C(=N\N=C\c1cccc(C(F)(F)F)c1)c1ccncc1,> 100 µM,–
Cc1n(CC(=O)c2ccccc2)nc2sc(N)n[n+]12,87.5 µM,–
Cc1cn2c(=O)n(c1=O)Cc1ccccc1C2,> 100 µM,> 100 µM
COc1ccc2c(c1)CCCC1C3=NCCC3(C)CSC21 (centres undefined),> 100 µM,–
OCCO[P+]1(OCCO)n2c3ccc2C(c2ccccc2)=C2C=CC(=N2)C(c2ccccc2)=c2ccc(n21)=C(c1ccccc1)C1=NC(=C3c2ccccc2)C=C1,1.46 µM,–
COc1cc2c(cc1OCCCN1CCN(c3cc(=O)oc4c(C)c(OC)ccc34)CC1)N=C[C@@H]1CCCN1C2=O,6.31 µM,2.35 µM
O=C1C=CC(=O)c2c1ncc1c2nc2sccn21,> 100 µM,22.3 µM
Cc1ccccc1C(C(=O)NC1CCCCC1)N(C(=O)Cn1ccnc1C)c1cccc(F)c1 (centres undefined),> 100 µM,> 51.7 µM
C/C=C\C(CC(=O)NCCC1CN(C(=O)c2ccccc2)c2ccccc21)CC(=O)OC (centres undefined),> 100 µM,–
Cc1cc(N=C2C=C(Nc3cc(C)on3)C(=O)c3ccccc32)no1,> 100 µM,–
COc1ccc(-c2csc3c2-n2cccc2C3=O)cc1O,> 100 µM,0.0738 µM
N=C(N)c1ccc(-c2ccc(-c3ccc(F)cc3)o2)o1,3.17 µM,1.6 µM
CC[C@@H]1CC[C@@H]2[C@H](CC[C@]3(C)[C@@H](OS(=O)(=O)c4ccc(C)cc4)CC[C@@H]23)[C@H]1CO,> 100 µM,–
NC(=O)c1c2c(cc3c(=O)c4ccccc4[nH]c13)CCCC2,> 100 µM,–
c1ccc(Nc2nnc(-c3nsc4ccccc34)o2)cc1,> 100 µM,–
O=C(/C=C/c1ccccc1O)/C=C/c1ccccc1O,6.02 µM,–

# — PubChem BioAssay (NCI)
